Measured values reported in PMC4336329 (PLoS ONE, 2015).
Hit rate of the full screen: of about 310,000 compounds, about 2,200 (0.71%) showed an effect of 50% or more. The effect is printed as a negative number. The list shows a part of the results.

The compounds below were run against human ether-à-go-go-related gene (hERG) potassium channel (human, UniProt Q12809) (assay: primary screen, population patch clamp on CHO cells stably expressing hERG).
Chain of human ether-à-go-go-related gene (hERG) potassium channel (Q12809 whole entry, looked up): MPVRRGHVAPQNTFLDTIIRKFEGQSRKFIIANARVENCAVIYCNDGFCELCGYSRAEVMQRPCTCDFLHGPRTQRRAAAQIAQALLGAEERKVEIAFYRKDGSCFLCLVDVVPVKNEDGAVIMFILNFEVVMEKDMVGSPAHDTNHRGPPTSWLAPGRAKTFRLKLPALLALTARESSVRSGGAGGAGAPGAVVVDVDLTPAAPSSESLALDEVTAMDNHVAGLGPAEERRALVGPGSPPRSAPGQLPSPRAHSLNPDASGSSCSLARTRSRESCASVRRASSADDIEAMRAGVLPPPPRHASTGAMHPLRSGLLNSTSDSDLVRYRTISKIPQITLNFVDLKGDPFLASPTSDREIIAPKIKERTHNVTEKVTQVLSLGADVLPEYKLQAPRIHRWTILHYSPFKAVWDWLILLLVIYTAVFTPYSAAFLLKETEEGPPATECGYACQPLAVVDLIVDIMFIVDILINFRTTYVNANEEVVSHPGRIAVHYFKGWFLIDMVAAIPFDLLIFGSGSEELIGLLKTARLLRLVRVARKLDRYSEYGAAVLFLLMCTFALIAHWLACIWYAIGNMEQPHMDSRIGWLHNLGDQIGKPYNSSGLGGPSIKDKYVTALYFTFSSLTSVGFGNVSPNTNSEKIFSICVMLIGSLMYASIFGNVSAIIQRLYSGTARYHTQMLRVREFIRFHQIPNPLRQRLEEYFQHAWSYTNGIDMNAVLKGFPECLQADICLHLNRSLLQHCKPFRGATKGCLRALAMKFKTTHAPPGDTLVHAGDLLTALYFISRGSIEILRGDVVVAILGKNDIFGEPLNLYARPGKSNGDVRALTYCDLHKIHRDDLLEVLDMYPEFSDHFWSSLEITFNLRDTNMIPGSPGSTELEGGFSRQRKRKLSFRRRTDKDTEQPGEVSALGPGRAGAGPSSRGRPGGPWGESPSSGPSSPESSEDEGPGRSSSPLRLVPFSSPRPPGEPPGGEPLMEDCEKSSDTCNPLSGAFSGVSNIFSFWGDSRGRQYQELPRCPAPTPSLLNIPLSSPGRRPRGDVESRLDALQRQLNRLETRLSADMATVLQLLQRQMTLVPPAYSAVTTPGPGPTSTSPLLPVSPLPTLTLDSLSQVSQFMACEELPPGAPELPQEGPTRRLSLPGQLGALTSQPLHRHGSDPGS

| Structure (SMILES) | hERG current change (%, negative = inhibition) at 1uM [%] |
| --- | --- |
| Cc1cccc(C(=O)NNC(=S)NC(=O)c2cccs2)c1 | 13.3 |
| Cc1cc(Oc2ccccc2)nc(N)n1 | 5.51 |
| O=[N+]([O-])c1cnn(-c2nc(-c3cccs3)cc(C(F)(F)F)n2)c1 | -2.31 |
| Cc1c(NC(=O)c2cccc(NC(=O)c3ccco3)c2)cccc1C(=O)O | 13.4 |
| O=C(CCN1C(=O)/C(=C/c2ccccc2)SC1=S)Nc1ccccn1 | 9.75 |
| Cc1ccc(N2CC(C(=O)NCc3cccnc3)CC2=O)cc1 (stereo not drawn) | 3.68 |
| CC(NC(=O)CN(C)S(=O)(=O)c1ccc2c(c1)c(=O)n(C)c(=O)n2C)c1ccccc1 (stereo not drawn) | -1.26 |
| COc1ccccc1NC(=O)CSc1nnc(C)n1CCc1ccccc1 | 2.51 |
| Cc1ccccc1N(CC(=O)NC(C)(C)C)C(=O)CS(=O)CC(=O)Nc1ccc2c(c1)OCO2 (stereo not drawn) | 14.7 |
| CCOC(=O)Nc1cccnc1Sc1ccc(Cl)cc1 | 7.9 |
| NS(=O)(=O)c1cccc(NS(=O)(=O)c2ccc(/C=C/C(=O)OCC(=O)c3ccc(Br)cc3)cc2)c1 | 13.5 |
| COc1ccc(CNc2cccc3[nH]c(C(F)(F)F)nc23)cc1.Cl | 4.62 |
| CCN1C(N(C)C)=NC[C@@H]1Cc1ccccc1 | 6.6 |
| COc1ccc(Nc2nc(C(=O)N3CCc4cc(OC)c(OC)cc4C3)cs2)cc1 | 0.6 |
| CC(C)=Cc1c(O)nc2ccccn2c1=O | 12.1 |
| Cc1ccc(Sc2nc([N+](=O)[O-])nn2C)cc1 | 11.2 |
| O=C(N/N=C/c1ccc2cccnc2c1)c1ccco1 | 13.2 |
| Cc1ccc2nc(N/N=C\c3ccc([N+](=O)[O-])o3)nc(-c3ccccc3)c2c1 | -35.4 |
| CC(NC(=O)Nc1ccccn1)N1C(=O)C2C3C=CC(C3)C2C1=O (stereo not drawn) | 3.6 |
| C/C(=N\OC(=O)c1ccc(F)cc1)c1nccs1 | 4.24 |
| O=C(Nc1ccc(CN2CCCCC2)cc1)Nc1ccc(Br)cc1Cl | 8.63 |
| CCN1CCN(C(=O)C2CCCN(S(=O)(=O)c3ccc(OC)c(OC)c3)C2)CC1 (stereo not drawn) | 14.6 |

| Structure (SMILES) | hERG current change (%, negative = inhibition) at 1uM [%] |
| --- | --- |
| COc1ccc(/C=C/C(=O)NC(=S)NNC(=O)c2ccco2)cc1 | 7.53 |
| O=C1c2ccc(Oc3ccc([N+](=O)[O-])cc3)cc2C(=O)N1c1ccncc1 | 6.69 |
| Cc1nc(Nc2ccccc2O)c2oc3ccccc3c2n1 | 14.4 |
| COC(=O)c1ccc(NC(=O)CN2CCN(CC#N)CC2)cc1.O=C(O)C(=O)O | 10.7 |
| Cc1ccc(C(=O)NCCc2cccc(Cl)c2)cc1[N+](=O)[O-] | 5.44 |
| NC(=O)CSc1nc(-c2ccccc2)c(-c2ccccc2)o1 | 8.48 |
| CC(C)CC(COCc1ccc(Cl)cc1)N1CCN(C(=O)c2cccc(C(F)(F)F)c2)CCC1=O (stereo not drawn) | 20.5 |
| Cc1noc2ncnc(Oc3ccc(C(C)(C)C)cc3)c12 | 8 |
| CCSc1ccccc1C(=O)n1nnc2ccccc21 | 10.1 |
| O=C(/C=C/c1cccs1)N1CCOCC1 | 12.8 |
| Cc1cc(Nc2cccc(F)c2)n2c(n1)nc1ccccc12 | 7.86 |
| CN(C)CC/C=C1/c2cc(F)ccc2Sc2ccc(Cl)cc21.Cl | 4.37 |
| Cc1ccc(-n2c(SCC(=O)N/N=C/c3ccccc3OCC(=O)O)nc3ccccc3c2=O)cc1 | 11 |
| O=c1c2ccccc2nc(-c2ccccc2)n1Cc1ccc(Cl)cc1 | 8.65 |
| O=C(Nc1ccccc1Cl)Oc1ccc(Cl)cc1Cl | 12.1 |
| CCOc1c(C)cnc2c1c(=O)n(Cc1ccc(Cl)cc1)c(=O)n2C | 11.9 |
| Cc1ccc(S(=O)(=O)N2CCC(C(=O)N(C)C3CCS(=O)(=O)C3)CC2)cc1 (stereo not drawn) | 3.49 |
| COc1ccc(CCN2C(=O)C3C4C=CC(C4)C3C2=O)cc1OC (stereo not drawn) | 7.3 |
| CS(=O)(=O)c1ccc(C(=O)OC2CCOC2=O)cc1[N+](=O)[O-] (stereo not drawn) | 16.7 |
| COc1cc2ccccc2cc1C(=O)NC(=S)Nc1cccc(C(=O)O)c1C | 11 |
| Cc1cccn2c(=O)c3cc(C#N)c(=O)n(-c4c(C)n(C)n(-c5ccccc5)c4=O)c3nc12 | -0.718 |
| O=C(C1=C[C@@H](c2ccc(Br)cc2)C[C@@H](OCc2ccc(CO)cc2)O1)N1CCOCC1 | 3.5 |

| Structure (SMILES) | hERG current change (%, negative = inhibition) at 1uM [%] |
| --- | --- |
| O=C(NCc1ccc(F)cc1)C1CCCN(S(=O)(=O)c2ccc(Br)s2)C1 (stereo not drawn) | -1.1 |
| COCCCNC(=S)N1CCCN(c2nc3cc(C)ccc3cc2C#N)CC1 | -10.4 |
| CC1(N2CCOCC2)CC2(O)C(=[N+]1[O-])CCc1nonc12 (stereo not drawn) | 16.8 |
| COc1ccc(NC(=O)N2C3CCCC2CC(NC(=O)C2CC2)C3)cc1 (stereo not drawn) | 18.4 |
| Cc1nc(-c2cccc(Cl)c2)n[nH]1 | 13 |
| O=C(NNC(=O)C12CC3CC(CC(C3)C1)C2)c1ccccc1O | 6.41 |
| COCCNC(=O)CCc1nnc2ccc(N3CCC(C)CC3)nn12 | 19.8 |
| COc1ccc(C2=NOC(C(=O)Nc3cc(C)on3)C2)cc1OC (stereo not drawn) | 5.71 |
| CSCC[C@H](NC(=O)N1CCn2c1nc1ccccc12)C(=O)NCc1ccccc1 | 17.9 |
| Cc1ccc(S(=O)(=O)N2CCN(C(=O)Cn3nc(C(=O)O)c4ccccc4c3=O)CC2)cc1 | 15.4 |
| CCOc1cc(/C=C(/C#N)C(=O)Nc2ccc(O)cc2)cc(Br)c1O | 4.59 |
| Cc1nn(CC(=O)N(C)C2CCS(=O)(=O)C2)c(C)c1S(=O)(=O)N(C)C (stereo not drawn) | 5.66 |
| CCOC(=O)C1=NN(C(=O)c2ccc(OC)cc2)C(O)(c2ccc(Cl)cc2)C1 (stereo not drawn) | 6.32 |
| N#Cc1ccc(CSc2nnc(-c3ccccc3)n2Cc2ccco2)cc1 | -34.4 |
| Br.CN1C(c2ccc(F)cc2)=CS/C1=C(/C#N)c1nnc(N2CCOCC2)n1-c1ccccc1 | -8.89 |
| COc1ccc(NC(=O)C2=C(C)NC(=O)NC2c2cccc(OC)c2OC)c(OC)c1 (stereo not drawn) | 18.3 |
| COc1ccc(CCN(Cc2cc3cc(C)ccc3[nH]c2=O)C(=O)N2CCCC2)cc1OC | -4.9 |
| COc1ccc(/C=C2/C(=O)N(Cc3ccccc3)N=C2C)cc1 | 6.37 |
| O=C(c1cccc2ccccc12)C1CCCN(C(=O)CCN2CCCO2)C1 (stereo not drawn) | 5.74 |
| CC(=O)Nc1ccc(C(=O)CN2CCN(c3ccccc3)CC2)cc1 | 9.15 |
| COc1ccc(C2=CC3=CC(=O)C(C)(O)C(=O)C3=CO2)cc1 (stereo not drawn) | 6.74 |
| NS(=O)(=O)c1ccc(CNC(=O)c2cc(-c3ccccc3)nc3ccccc23)cc1 | 6.11 |

| Structure (SMILES) | hERG current change (%, negative = inhibition) at 1uM [%] |
| --- | --- |
| COc1ccccc1C(=O)NCC(=O)OC(C)C(=O)NC(=O)NC1CCCCC1 (stereo not drawn) | 8.93 |
| O=C(NCc1ccco1)c1ccc2c(c1)N(Cc1ccccc1)CCS2 | 3.71 |
| CCCC(c1nnnn1Cc1cccs1)N1CCN(c2nc3ccccc3s2)CC1 (stereo not drawn) | 9.82 |
| Cc1cc(OC(C)C(=O)Nc2ccc(S(=O)(=O)Nc3onc(C)c3C)cc2)cc(C)c1Cl (stereo not drawn) | -0.475 |
| C=CCn1c(NCc2ccc(OC)cc2)nc2ccccc21 | 12.9 |
| Cc1ccsc1C(=O)OCc1nc2ccsc2c(=O)[nH]1 | 5.07 |
| Cc1cc(C)c(NS(=O)(=O)c2ccc(NC(=O)c3cccs3)cc2)c(C)c1 | 10.6 |
| Cc1ccc(S(=O)(=O)N2CCN(C(=O)COC(=O)/C=C/c3ccccc3[N+](=O)[O-])CC2)c(C)c1 | 20 |
| COc1ccc(NS(=O)(=O)c2ccc3c(c2)CCCN3C(C)=O)cc1 | 3.91 |
| Cc1ccc(CC(=O)Nc2cc(C)on2)cc1 | 3.37 |
| CCOc1ccc(-n2c(O)c(C=Nc3ccc(N4CCOCC4)cc3)c(=O)[nH]c2=O)cc1 | 6.19 |
| COCCCNC(=S)N1CCC(C(=O)c2ccc(Cl)cc2)CC1 | 10.5 |
| COc1ccc(Cn2c(=O)cc(C)[nH]c2=S)cc1 | 10.3 |
| CC(=NCc1ccc2c(c1)OCO2)c1c(O)[nH]c(=O)[nH]c1=O | -2.99 |
| Cc1nn(-c2ccc(C(=O)NCC(c3ccco3)N3CCCC3)cc2)c(C)c1Cl (stereo not drawn) | 5.69 |
| COc1ccc(-n2c(SCC#N)nnc2-c2ccc(NS(=O)(=O)c3ccc(C)cc3)cc2)cc1 | 2.5 |
| Clc1cccc(CSc2nnc(-c3cccnc3)n2Cc2ccco2)c1 | -61 |
| COc1ccccc1OCC(O)CN1CCN(C(=O)c2ccccc2)CC1.Cl (stereo not drawn) | 10.4 |
| COc1cc2c(cc1OC)C(c1cccc([N+](=O)[O-])c1)NC(=O)C2 (stereo not drawn) | -4.16 |
| C/C(Cc1ccccc1)=N\NC(=O)CNC(=O)Cc1ccc(Cl)cc1 | 2.93 |
| CC(C)CCNC(=O)NC(=O)CSc1nnc(-c2ccccc2Br)o1 | 1.41 |
